According to the supplement of paper PMC10369915:
Some of the results follow. Cut-off read from the data, not from the text of the source: active = 3.2 or more and inactive = the rest. Only a few entries rise above the background.

B1: BTK_Y40_Y40N_YF (peptide)
chain: HKLSFNEFDFE
B2: BRIP1_Y921_S919P (peptide)
chain: YSTPPYLLEAA
B3: BST2_Y8_T4I_YF (peptide)
chain: SISFDYCRVPM
B4: BTK_Y425_K430E (peptide)
chain: KWRGQYDVAIE
B5: BRD2_Y715 (peptide)
chain: KPRKPYTIKKP
B6: BTK_Y40_Y39S_YF (peptide)
chain: HKLSSYEFDFE
B7: BTD_Y536_R538C_YF (peptide)
chain: VTAALYGCLFE
B8: BRD1_Y33 (peptide)
chain: RETLTYAQAQR
B9: BRDT_Y331 (peptide)
chain: MDNQEYKDAYK
B10: BRDT_Y331_YF (peptide)
chain: MDNQEYKDAFK
B11: BRCA2_Y71 (peptide)
chain: QRKPSYNQLAS
B12: BTK_Y425_K430R (peptide)
chain: KWRGQYDVAIR
B13: BST2_Y8_YF (peptide)
chain: STSFDYCRVPM
B14: BTK_Y361_Y361C (peptide)
chain: PELINCHQHNS
B15: BST2_Y6_T4I_YF (peptide)
chain: MASISYDFCRV
B16: BRIP1_Y921_YF (peptide)
chain: FSTSPYLLEAA
B17: BTK_Y461 (peptide)
chain: KLVQLYGVCTK
B18: BTK_Y361_S366F (peptide)
chain: PELINYHQHNF
B19: BTK_Y361_H362Q (peptide)
chain: PELINYQQHNS

What follows are binders tested against SHP2 C-SH2 domain E139D (assay: enrichment score (SH2-bound / input frequency) (ratio); bacterial display of known human phosphotyrosine sites (pTyr-Var adds point mutants) read by sequencing; higher = stronger binding; tyrosines were phosphorylated by kinases first). Details: peptide library: pTyr-Var.
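Note: displayed peptides selected on beads carrying the immobilized SH2 domain, with library peptides lacking any tyrosine serving as negative controls.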

Binder	enrichment score
B1	inactive: 0.988
B2	inactive: 1.63
B3	inactive: 0.813
B4	inactive: 0.799
B5	active: 4.53
B6	inactive: 0.732
B7	inactive: 1.18
B8	inactive: 0.65
B9	inactive: 0.488
B10	inactive: 0.581
B11	inactive: 0.917
B12	inactive: 1.9
B13	inactive: 0.816
B14	inactive: 1.63
B15	inactive: 0.872
B16	inactive: 1.19
B17	inactive: 1.3
B18	inactive: 0.94
B19	inactive: 0.804

These binders were tested against SHP2 C-SH2 domain wild-type in the same assay as above. Details: peptide library: pTyr-Var.

Binder	enrichment score
B1	inactive: 0.556
B2	inactive: 0.891
B3	inactive: 0.91
B4	inactive: 1.04
B5	active: 3.61
B6	inactive: 0.587
B7	inactive: 1.43
B8	inactive: 0.483
B9	inactive: 0.532
B10	inactive: 0.799
B11	inactive: 0.926
B12	inactive: 1.84
B13	inactive: 0.721
B14	inactive: 1.56
B15	inactive: 1.16
B16	inactive: 1.08
B17	inactive: 1.49
B18	inactive: 0.844
B19	inactive: 0.71

The binders below were run against SHP2 N-SH2 domain L43F in the same assay as above. Details: peptide library: pTyr-Var.

Binder	enrichment score
B1	inactive: 0.825
B2	inactive: 0.789
B3	inactive: 0.815
B4	inactive: 1.06
B5	active: 4.2
B6	inactive: 0.584
B7	inactive: 1.33
B8	inactive: 0.568
B9	inactive: 0.576
B10	inactive: 0.628
B11	inactive: 1.03
B12	inactive: 1.87
B13	inactive: 0.715
B14	inactive: 1.43
B15	inactive: 0.978
B16	inactive: 1.21
B17	inactive: 1.39
B18	inactive: 1.03
B19	inactive: 0.633

The binders below were run against SHP2 N-SH2 domain T42A in the same assay as above. Details: peptide library: pTyr-Var.

Binder	enrichment score
B1	inactive: 0.438
B2	inactive: 0.931
B3	inactive: 0.864
B4	inactive: 0.768
B5	active: 3.42
B6	inactive: 0.491
B7	inactive: 1.02
B8	inactive: 0.447
B9	inactive: 0.428
B10	inactive: 0.62
B11	inactive: 1.12
B12	inactive: 1.82
B13	inactive: 0.52
B14	inactive: 1.16
B15	inactive: 1.01
B16	inactive: 1.22
B17	inactive: 1.21
B18	inactive: 0.704
B19	inactive: 0.616

Each binder was assayed against SHP2 N-SH2 domain T52S in the same assay as above. Details: peptide library: pTyr-Var.

Binder	enrichment score
B1	inactive: 0.544
B2	inactive: 0.896
B3	inactive: 0.935
B4	inactive: 0.816
B5	active: 3.98
B6	inactive: 0.642
B7	inactive: 1.08
B8	inactive: 0.456
B9	inactive: 0.484
B10	inactive: 0.713
B11	inactive: 1.23
B12	inactive: 2.05
B13	inactive: 0.552
B14	inactive: 1.52
B15	inactive: 0.827
B16	inactive: 1.33
B17	inactive: 1.15
B18	inactive: 1.17
B19	inactive: 0.627

What follows are binders tested against SHP2 N-SH2 domain wild-type in the same assay as above. Details: peptide library: pTyr-Var.

Binder	enrichment score
B1	inactive: 0.923
B2	inactive: 0.937
B3	inactive: 1.09
B4	inactive: 1.1
B5	active: 3.88
B6	inactive: 0.599
B7	inactive: 1.55
B8	inactive: 0.857
B9	inactive: 0.742
B10	inactive: 0.69
B11	inactive: 0.954
B12	inactive: 1.95
B13	inactive: 0.879
B14	inactive: 1.38
B15	inactive: 1.09
B16	inactive: 1.11
B17	inactive: 1.73
B18	inactive: 1.1
B19	inactive: 0.801
